The supplement of paper PMC12632987
The full ranking holds about 2,300 sequences; the median of “median log2 fold change of GCK-ALFA target abundance (FLAG IP / Myc IP barcode read proportion)” is about 0.095, and the lowest 2% start at about -0.47. The list shows a part of the results.

B1: LC3A_147_479 (protein)
chain: AVVDIDVLVKNEETAEELIKMFEEKKEELEAKGIKVELEIKKEKLDENTWYVEARITIEAETEEEEKAAAQEVVDRFDEFEEKNKDEVLASIISVEFVEK
B2: LC3A_3_1450 (protein)
chain: AEEIIEEAEKVLKEFGRSEETIEAARELLEALAEKGYEEAMKTLLEELKKLKDVSSEIILAMLEEIKYIVENEDLSEEEVIEEIKSEAAAAKSEQEIIEL
B3: LC3A_59_2022 (protein)
chain: SARLEAARAELRATGPDREALADVIIEHLLEARDDPELLAELEALIAEVLVEKGVLSPELAAEMLAEMRAAVATLADPEEARARMREIFNTALNEEEIIE
B4: LC3A_28_800 (protein)
chain: SETRESAEKAREEAERLIAAGEEPVITIEISADATQEELDYVAETIREMARLAKEAGIPKLYVVVDSPDNQEAITKISETEDELRKEGLPVDVIIAIDEP
B5: LC3A_28_1057 (protein)
chain: SEVEKEIEEALAKAKELAAKGEEALITIKIKKEDTEEDVEKKLKALKEIAEITKDLPKTDIIVDIDNKNKEEVTKKFAELGDELEKKYPNVTVILALSEE
B6: LC3A_28_712 (protein)
chain: GEIEKNIEAALKEAKEAAAKGEEVVVEIKVPGTATEEDIEKVIKALEEIAEILKDLPSAAIVVDVDGGVPQEYIDKIAERAEEIEKKYPNVTVIIALEES
B7: LC3A_28_754 (protein)
chain: MDIEEEVEKAIEEARKAVAAGEEAVITITVPAGATEEDVEKVIEGMEEIAEIAKDMKRMTIVVDIEAGVPQEHIDKLIDKGEEIEERYPNVTVIFALDED
B8: LC3A_16_521 (protein)
chain: MEELKEKLEILLKASEALDSDFEKFVELLIELDPSRKEEILEASKTPDAKAKLAEIAAEIAEELLEKLKKEGTEEQKQTAENIRDLFETEALLEQVRLEE
B9: LC3A_3_1544 (protein)
chain: VEEELEKALKELKEKGASEETLEAFKKAAKALIERGYEEAAKTFIEEMRKLKDAPNEILLDFANDVLELIETSDLNEEELIKKIKEIATIYKNESEIEEL
B10: LC3A_147_398 (protein)
chain: ATVVIDIDVLVKEDRSVIEELVEKLKETAEKLGAEVEVEVEIIEEPGEIYARITVKVKTSNDPEKIKEVENALIDTVEEFEEKNKDKVLGSLISIEVIEE
B11: LC3A_3_1542 (protein)
chain: LEKELEELLKKLKEAGASEETLKAVKEAFEALKERGYEKAAKTFIEETEKLIDAPSELLLDFAEEVLELVKTSDLDEESLVKEIKAIARTIANESEIIEL
B12: LC3A_28_1202 (protein)
chain: SATKAAADAALAEAKALLAAGEEGVVELVVEGKITEEETQYVIDKLEEIAELAAKSGKISIVLDISGEVPEEHQQKLIDKADELEKKYPNVNIIVALEER
B13: LC3A_free_0_2097 (protein)
chain: KKVVVEVVAISKKKLKEEDLKKVEEELRKLAERIERERGAKTRVEVSEIDGRNVFTITVEHENWTLDEGLALAREISDFVEETFKSLGAEVTIYESVVVE
B14: LC3A_free_8_2473 (protein)
chain: SVQELVDQITALLDELEEKVREKAKELGVDELDILELELEIGSLIADLISASDGTIEEVKEIAEEGLEEIEELAKELSEEIAEIVRETREKILALLEAAE
B15: LC3A_free_0_2121 (protein)
chain: KKTVVELVVILDEKTSEEKAKEAYEELKEKAEELAEENGWEVEVKLDKVDGRHIITVTLTSDEPDIDKGLELERKLSEIAEEIAKKLGLDATIYSSVYLE
B16: LC3A_28_1187 (protein)
chain: SELEEELKKAIEEAKEKAKKGEPAVITIKVPGDANEEDIERVIETLREIAEILKDIKGSAIIIDLDGGVKQEHQDRLMKEGEEIEKKYPNVTVIFALEER
B17: LC3A_28_741 (protein)
chain: SELEENLKKALEEAKKAAKAGESAVITIKIPGTATEEDIEKVIKALKEIAEILKDVKDQAIIIDIDGKLDEKLLTKLADAADEIEKKYPNVTVIIALDEE
B18: LC3A_45_1974 (protein)
chain: MKKARITIWVKREYAEEVKEALYKTAEELEKKYGDDLKIDKESMDKSMEETKDEEFVELEVVIEAKTQEILEEAVNAIIDTMDEVGDHKVAMIEVEELPP
B19: LC3A_3_1610 (protein)
chain: MEELVEEELERLREAGLSEEVLEKARELLEALAAKGFEEAARTATEELLKLKDLPEELLLAMLEEMLEKVETEDLNEEEVIKFIREEARLARLEAEIEEL

biological target: MAP1LC3A, Q9H492; assay: median log2 fold change of GCK-ALFA target abundance (FLAG IP / Myc IP barcode read proportion) (log2 ratio); each designed protein is fused to an ALFA-tag nanobody in HEK293 cells to bring the named protein to FLAG-tagged glucokinase (GCK); Myc marks an untargeted standard; higher = target protein stabilised (more abundant); conditions: target protein: 3xFLAG-MCP-GCK-ALFA reporter; HEK293 landing pad (RPLP)
Experimental: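 LABEL-seq trans screen in HEK293 landing-pad cells. Each de novo designed 100-aa effector handle, binding the indicated effector (E3 ligase, DUB or autophagy protein), is fused to a constant NbALFA target handle and induced with 2 ug/mL doxycycline. A FLAG-MCP-GCK-ALFA target and a Myc-MCP standard reporter were transfected, and after 48 h circRNA barcodes were recovered by anti-FLAG and anti-Myc IP and sequenced. The value is the median across barcodes (at least 3 per design) of log2(FLAG/Myc read-proportion ratio), with the two transfection replicates pooled. Negative values mean degradation and positive values mean stabilisation of the target.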

Binder	median log2 fold change
B1	0.117
B2	0.0368
B3	0.387
B4	-0.0317
B5	0.481
B6	0.081
B7	-0.227
B8	0.336
B9	0.36
B10	0.112
B11	0.402
B12	-0.206
B13	-0.0195
B14	-0.379
B15	0.00278
B16	0.0852
B17	0.181
B18	-0.00291
B19	0.142
